Source: publication PMC12136788
The list shows a part of the results.

B1: chr2:48026839:48026840:+_ENSG00000116062_ENST00000540021|hu_hu|hu_hu_hu_mus_False|48_58 (ssRNA)
RNA: GGGAGUUCUACAGUCCGACGAUCAUAGUGAGCCACUAGCGUCCUAAAUCUGGAACAGUGGCGGUCAUCCGAAAACUGACCUAUGAAAAACUUUCCCAGUGAAGUGUCCACAAAGCAAACACCAUACACACGAGUGUGACCAGACAACAGAGGAUUGAGCAUCA
B2: chr15:58001004:58001005:+_ENSG00000255529_ENST00000299638|hu_hu|FALSE|FALSE (ssRNA)
RNA: GGGAGUUCUACAGUCCGACGAUCAUCUGUACCCACAUCAACUUCUGCAAUUGCUUUUUGCCUUAGCUUACAGUCUAAACUAACAGGGUUAAACAGUUCACUUUUUCUUCUAACUUCUUCACAUUCUGCAAUGGCAGCUUUCAGCAACAGAGGAUUGAGCAUCA
B3: chr12:72289710:72289711:+_ENSMUSG00000034601_ENSMUST00000129376|mus_mus|FALSE|FALSE (ssRNA)
RNA: GGGAGUUCUACAGUCCGACGAUCAGAGAGUUAGGAUUCUCUUCAUCCAGUGGCAGGUCUCCACUGUCCCAUGGCUUGGGAAGUUCAGGGCUUGAUAACUUCAACUUGUCAAUGGAAGUUUCGGACAAAGUUGGGGUAAGAGCUCAACAGAGGAUUGAGCAUCA
B4: chr11:50112788:50112789:-_ENSMUSG00000020368_ENSMUST00000020637|mus_hu|FALSE|FALSE (ssRNA)
RNA: GGGAGUUCUACAGUCCGACGAUCGUCAGAGGUCAUGGACCACAGCUCCAAACCAAUAGCACUAAAAGGAGUCAUUCUGAAAGGUUCCAGAUCUUCAAAGAAAUCUGGAUUUGGUAUUUUCCUGGGUUUCCAGAUUCCCUGGUACAACAGAGGAUUGAGCAUCA
B5: chr12:120936209:120936210:+_ENSG00000088986_ENST00000242577|hu_hu|motif|central (ssRNA)
RNA: GGGAGUUCUACAGUCCGACGAUCUGAGAGAAAACAACGUGGGCAGAAGUAUGGAAUAGAAAAUAAAUACAAAUGUAGGCGGUUCUGCUAAUUGUUUUAUAACCACGACAAACUAGUACAGAGAAUGCCCUGUACAAAACACAACAACAGAGGAUUGAGCAUCA
B6: chr8:28827827:28827828:+_ENSG00000147421_ENST00000397358|hu_hu|FALSE|FALSE (ssRNA)
RNA: GGGAGUUCUACAGUCCGACGAUCAUUCUCCCUCCCAUUUUGAUUGGUAGUGCAAGGCUGUGGGGAAGUAUCAUAACUGUUGCUAGGUGACGGGGACAUUCCCGAAUGCUGCGUCUGUGUGGAAGCUGUAGCUGUAGAGGAAGACAACAGAGGAUUGAGCAUCA
B7: chr6:83927055:83927056:+_ENSMUSG00000030016_ENSMUST00000032088|mus_hu|FALSE|FALSE (ssRNA)
RNA: GGGAGUUCUACAGUCCGACGAUCUGUAGCUUUUGCCUUAGGAGAAGAGACUAUAACAGCCUUGAUGCUUGGUUUACUGCUAGAUACAUCUGAUACAGCCAGAAUACUAGUUUUACUAGUUUCAUCAGGCUUAUUAGCCUGACCCAACAGAGGAUUGAGCAUCA
B8: 163978229_163978349_2261_3pUTR_ENSMUSG00000018209_ENSMUST00000018353|mouse|control|control (ssRNA)
RNA: GGGAGUUCUACAGUCCGACGAUCAGGCACUGGGCAGUAUCUUGGAUGCGACUUUAGGCAGCUGGGAGGGUGGCGAUGGAUGAAAGGCGUUGAGACAGCAAAGGCUACUCUGCAAAGAGGGUGCAGGCGUCUCCUGGGAAAAGACAACAGAGGAUUGAGCAUCA
B9: 55316524_55316644_4947_3pUTR_ENSMUSG00000018583_ENSMUST00000018727|mouse|control|control (ssRNA)
RNA: GGGAGUUCUACAGUCCGACGAUCGUAGGUAUUGCCCGAGGCCCUGCCUGCUCCUGGAAGCCCUGAUUGCUCAACUGCUUCUCACCAUCUCUUCCCCUUAUUACUGGGUCAUAAUUCAAGGCAGACAUAAAACCUAACUAAGUGCAACAGAGGAUUGAGCAUCA
B10: 14247384_14252473_1229_CDS_ENSMUSG00000039219_ENSMUST00000039538|mouse|control|control (ssRNA)
RNA: GGGAGUUCUACAGUCCGACGAUCAAGCACAGGCCGUUUGUUAAUAGGUGUACCUCUAUCCUCCAUGAACUUAUACAGCUGCUGAAGAAAGUUCUCCCUUUCCUCUGGAAAUGGUUCUAUUUCUUCCUCUUCUUCGCUGCUGUUCAACAGAGGAUUGAGCAUCA
B11: 130454760_130463363_1317_CDS_ENSG00000196455_ENST00000356763|human|control|control (ssRNA)
RNA: GGGAGUUCUACAGUCCGACGAUCGAAAAAAUGUCCAUUUCUAUAAGCCAAAAGUUGAGAGAGAUCAAAUAAUGGUACACCUUCUGUAAAAAGCUCAGCUAUCACACAACCUGCUGAAAAGAUGUCCAUUGCUCUCUUCAACUCCAACAGAGGAUUGAGCAUCA
B12: 57396974_57397094_119_5pUTR_ENSMUSG00000021938_ENSMUST00000022507|mouse|control|control (ssRNA)
RNA: GGGAGUUCUACAGUCCGACGAUCUCAGGUUUCCUCUUAACAUCAUCUUAGCAAGUUCGCUUGGGAUGCUGGAUGAGGCCUAGACGUCAAGGUACACACGUCUCCACAUGUAUCUAUGGAAACGAAGCAAGGAAAGCCAGGUAACAACAGAGGAUUGAGCAUCA
B13: chr8:113366663:113366664:-_ENSMUSG00000033732_ENSMUST00000042012|mus_hu|motif|central (ssRNA)
RNA: GGGAGUUCUACAGUCCGACGAUCCAAUUUCUGUUUCUCAAUGGCACUAAUCAUAACGGCUCGCCCUUUGGGAUCCACAGCGGAGAACUGGCCAGGAACGAUGCGACGGCAUCCACUCUUGCCAAAGGUUUCUUGGUGAAUCUUCAACAGAGGAUUGAGCAUCA
B14: chr11:46765198:46765199:-_ENSG00000175216_ENST00000415402|hu_mus|motif|central (ssRNA)
RNA: GGGAGUUCUACAGUCCGACGAUCUACAGAAUACAGUGUCCCUUCAGGGCUACAGAAGAAGAGCUCACAACUCAAAAGGAACGGUUAAAAGAGUUUCUAAUGGCUGAAAGCUAGGAAAAAUUAGGACAAUUUUACAAAUGAGCCCAACAGAGGAUUGAGCAUCA

Target: T1, UNK ZnF1-3 (human, UniProt Q9C0B0 31-174)
T1 sequence: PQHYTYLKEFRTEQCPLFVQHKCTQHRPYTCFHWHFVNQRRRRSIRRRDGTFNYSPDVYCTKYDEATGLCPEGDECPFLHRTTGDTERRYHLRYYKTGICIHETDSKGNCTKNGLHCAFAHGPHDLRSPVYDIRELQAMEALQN
Assay: nsRBNS (natural sequence RNA bind-n-seq); RBNS binding buffer (assumed for nsRBNS): 25 mM Tris pH 7.5, 150 mM KCl, 3 mM MgCl2, 0.01% Triton X-100, 500 ug/ml BSA, 20 U/ml SUPERase-In, 4 C; UNK is unkempt and MSI1 is Musashi-1; names of the RNAs are library labels; protein concentration not given here; high values mean tight binding

Question: For B1, which binding signal is on record?
Answer: 0.962 enrichment R

Question: B2 was tested. Which binding signal did it give?
Answer: 0.762 enrichment R

Question: How did the binding signal turn out when B3 was run?
Answer: 1.07 enrichment R

Question: With B4 as the binder, how does the binding signal read?
Answer: 0.966 enrichment R

Question: With B5 as the binder, how does the binding signal read?
Answer: 2.49 enrichment R

Question: How did the binding signal turn out when B6 was run?
Answer: 1.39 enrichment R

Question: Which binding signal does the source give for B7 here?
Answer: 0.715 enrichment R

Question: For B8, which binding signal is on record?
Answer: 1.94 enrichment R

Question: Which binding signal does the source give for B9 here?
Answer: 1.08 enrichment R

Question: With B10 as the binder, how does the binding signal read?
Answer: 0.47 enrichment R

Question: For B11, which binding signal is on record?
Answer: 0.83 enrichment R

Question: B12 was tested. Which binding signal did it give?
Answer: 0.8 enrichment R

Question: How did the binding signal turn out when B13 was run?
Answer: 0.826 enrichment R

Question: B14 was tested. Which binding signal did it give?
Answer: 1.95 enrichment R
